Measured values as given in ChEMBL document CHEMBL4888484, “Replenishing the malaria drug discovery pipeline: Screening and hit evaluation of the MMV Hit Generation Library 1 (HGL1) against asexual blood stage Plasmodium falciparum ,using a nano luciferase reporter read-out” (2022).
Out of some 150,000 compounds screened, about 540 (0.36%) showed an effect of 50% or more. The list shows a part of the results.

test system: Plasmodium falciparum; assay: Primary screen in NF54 nanoGlo assay, in single point, at 2uM, 72h; a lower Z score goes with more inhibition; assay type: functional, Erythrocyte; details: timepoint 72 hour

| SMILES | % Inhibition [%] | Z score |
| --- | --- | --- |
| Cc1ccc2c(=O)c(-c3nc(-c4ccccc4C)no3)cn(CC(=O)NCc3ccccc3Cl)c2n1 | -28 | 2.43 |
| CC(C)C[C@H](C)N(C)CCC(=O)Nc1ccccc1C#N | -8 | 1.47 |
| O=C1c2ccccc2CN1C1CCCCCC1CO (stereo unspecified) | -11 | 1.12 |
| Cc1nc(NC(=O)CCC(=O)c2ccccc2)n(C)n1 | -6 | 1.13 |
| Cc1cc(C#N)ccc1S(=O)(=O)OCC(F)(F)F | 9 | -0.98 |
| CC(C)c1ccc(-c2nc(N3CCN(Cc4ccccc4)CC3)nc3nn(C)c(N)c23)cc1 | -6 | 0.66 |
| Cc1cnc(C(=O)N2CC3C(C2)C3(C)C)cn1 (stereo unspecified) | -11 | 1.09 |
| Cc1cnn(CCCNC(=O)C[C@H]2COCCN2Cc2ccc(C)o2)c1 | -20 | 2.24 |
| C[C@H](C#N)CNC(=O)NCCOc1cccc(Br)c1 | -4 | 0.4 |
| Cc1cc(=O)c2cccc(C(=O)N[C@@H]3[C@@H]4CCO[C@@H]4[C@H]3N(C)C)c2[nH]1 | -9 | 1.87 |
| CNC(=O)OC[C@H]1CCCCN1C(=O)c1[nH]nc2c1CCCC2 | 1 | -0.08 |
| CCNC(=O)N1CCN([C@H](C(=O)N2CCc3ccccc3C2)C2CCCC2)CC1 | -6 | 0.95 |
| O=C1O[C@H](C(=O)NC2(c3nccs3)CCCC2)Cc2ccccc21 | -10 | 1.06 |
| CC1(C)CCN(C(=O)c2cccnc2C(N)=O)C[C@@H]1c1ccccc1 | -7 | 1.39 |
| O=C(C(=O)N1CCN(Cc2ccc3c(c2)OCO3)CC1)N1CCCCC1 | -7 | 0.89 |
| CCCn1c(C)nnc1CN[C@@H](C)c1cc(C)sc1C | -4 | 0.49 |
| Cc1cc(=O)[nH]c(CCNC2CCN(c3ccc(-c4cccc(F)c4)cc3)CC2)n1 | -14 | 1.29 |
| COC[C@H]1C[C@@H](NC(=O)c2ccccc2)[C@H](O)[C@@H]1O | 15 | -1.7 |
| CCN1C(=O)[C@H]2[C@@H](C1=O)[C@@](CO)(C(=O)OC)N[C@H]2c1ccc(F)cc1OC | -8 | 1.32 |
| COc1ccc(-c2nc(CN=C(N)Nc3ccc(C)cc3)n[nH]2)cc1 | -1 | 0.15 |
| CC(C)CC(=O)Nc1nnc(CCCOc2ccccc2)s1 | -8 | 1.54 |
| COc1ccc(NC(=O)c2sc3ncnc(N4CCc5ccccc5C4)c3c2C)cc1Cl | 29 | -3.37 |

| SMILES | % Inhibition [%] | Z score |
| --- | --- | --- |
| CCOc1ccc(-c2c[nH]c(-c3nccn3CC)n2)cc1OCC | 8 | -1.44 |
| CCc1cccc(OC2CN(Cc3cc(C#N)n(C)c3C)C2)c1 | -19 | 3.53 |
| COc1ccc(OC2CCN(C3CCCC3)CC2)c(C(=O)N2CCCC[C@@H]2CCCO)c1 | -8 | 1.11 |
| Cc1cccc(C)c1NC(=O)CN1C(=O)NC2(CCOCC2)C1=O | 5 | -0.94 |
| Cc1nc2ccccc2n1[C@H]1CCN(C(=O)c2ccc(C(F)(F)F)cc2)C1 | -9 | 1.18 |
| Cc1oncc1C(=O)NCCn1ccnc1-c1ncccn1 | -15 | 1.97 |
| Cn1nc(-c2nnc(-c3ccc(F)cc3)o2)c2c1CCN(S(=O)(=O)c1cccc3nsnc13)C2 | -13 | 1.53 |
| CCOC1CC(NC(=O)c2ccc3nncn3c2)C12CCCC2 (stereo unspecified) | -17 | 2.11 |
| OCc1cn([C@H]2CCCN(CCC3CCCCCC3)C2)nn1 | -1 | 0.14 |
| CS(=O)(=O)N1CCC[C@@H]1CNc1ccc(C#N)cn1 | 0 | -0.03 |
| O=C(Cc1ccccn1)N1CC[C@H](C2CCCCC2)C1 | 7 | -0.92 |
| CN(CC(CC1CC1)NC(=O)OC(C)(C)C)[C@@H]1COC[C@H]1O (stereo partly specified) | 8 | -1.06 |
| O=C(c1ccc2c(c1)CN(C(=O)c1ccccn1)CCO2)N1CCOCC1 | -1 | 0.2 |
| O=S(=O)(Nc1ccccc1-c1ccc2ccccc2n1)c1ccc(Cl)cc1 | 8 | -0.97 |
| COc1ccc(CCOc2ccc([C@H]3CC(O)=Nc4c3c(C)nn4-c3ncnc4[nH]cnc34)cc2)cc1 | -6 | 0.79 |
| C#Cc1cccc(NC(=O)N(CCO)CCCC)c1 | 2 | -0.24 |
| CC1CN(C(=O)c2cc3nccc(-c4ccc(F)cc4)n3n2)CC(C)O1 (stereo unspecified) | -9 | 1.4 |
| Nc1ccc2c(c1)OCCOCCOc1cc(N)ccc1OCCO2 | -12 | 2.32 |
| O=C(NCc1ccc(-c2nc3ccccc3o2)cc1)c1ccccc1Cl | -13 | 1.98 |
| Cc1cccc(-c2noc(-c3sccc3S(=O)(=O)N(C)c3ccc(C)c(C)c3)n2)c1 | -6 | 0.79 |
| O=C(NCCN1CCCCC1)[C@H]1CCCN(c2nnc3ccc(C(F)(F)F)cn23)C1 | -20 | 3.45 |
